Holding throughout (assay): Viability of human cancer cell lines after 72 h of drug (GDSC screen)
Compound in one experiment: CC(C)c1ccccc1Cc1cc(C(=O)Nc2ccc(S(=O)(=O)c3ccccc3C(C)(C)C)cc2)c(O)c(O)c1O [TW-37]
The following applies: top dose 5 µM. The method, then:
(§1)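 Human cancer cell lines in 384-well plates, medium with 10% serum, drug for 72 h over a 256-fold dose range (nine 2-fold or five 4-fold steps up to the top dose). Adherent lines were fixed and stained with the nucleic acid dye Syto60, suspension lines read with resazurin; signal relative to control wells, capped at 0 and 100%. One two-parameter sigmoid per drug and line, fitted in a mixed model over all curves with the slope shared within a line.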

Compound in another experiment: Cc1ccc(Nc2cc(-c3cccc(N4C(=O)c5ccccc5C4=O)c3)ncn2)cc1NS(C)(=O)=O [KIN001-270]
The following applies: top dose 20 µM; top dose inferred. The method, then:
as §1

Compound in the next experiment: C/C(O)=C(\C#N)C(=O)Nc1cc(Br)ccc1Br [LFM-A13]
The following applies: top dose 16 µM; top dose inferred. The method, then:
as §1

Compound in the next experiment: CCNC(=O)c1noc(-c2cc(C(C)C)c(O)cc2O)c1-c1ccc(CN2CCOCC2)cc1 [AUY922]
The following applies: top dose 0.256 µM; top dose inferred. The method, then: as §1

Compound in another experiment: Cc1cn(-c2cc(NC(=O)c3ccc(C)c(Nc4nccc(-c5cccnc5)n4)c3)cc(C(F)(F)F)c2)cn1 [Nilotinib]
The following applies: top dose 2 µM. The method, then:
as §1

Compound in a further experiment: Nc1ccn([C@@H]2O[C@H](CO)[C@@H](O)C2(F)F)c(=O)n1 [Gemcitabine]
Particulars: top dose 1.024 µM. The method, then:
as §1

Compound in a further experiment: S=C(NCc1ccc2c(c1)OCO2)N1CCN(c2ncnc3c2oc2ccccc23)CC1 [MP470]
Particulars: top dose 20 µM; top dose inferred. The method, then:
as §1

Compound in a further experiment: CC(O)(CS(=O)(=O)c1ccc(F)cc1)C(=O)Nc1ccc(C#N)c(C(F)(F)F)c1 [Bicalutamide]
Particulars: top dose inferred. The method, then:
as §1

Compound in another experiment: NC(=O)c1cccc(-c2cc(Nc3ccc(OC(F)(F)F)cc3)ncn2)c1 [GNF-2]
The following applies: top dose 1.28 µM; top dose inferred. The method, then:
as §1

Compound in another experiment: O=S(=O)(c1ccccc1)N(CC(F)(F)F)c1ccc(C(O)(C(F)(F)F)C(F)(F)F)cc1 [T0901317]
Particulars: top dose 10.24 µM; top dose inferred. The method, then:
as §1

[1] abbreviates: top dose 1.024 µM, screen: GDSC drug entry 150.
[2] abbreviates: top dose 10 µM, screen: GDSC drug entry 1502.

The IC50 comes from the fitted curve, where viability falls to half of the control; a limit (>, <) means that the fit lies beyond the doses tested. The AUC spans the tested range (256-fold, ending at the top dose) of the same fit; values near 1 show little effect. For some assays here: An inferred top dose was calculated from the reported fits. For some assays here: Drugs with an entry number were screened twice under separate entries, and the two screens often disagree.

In general, IC50 refers to the point on the concentration scale where inhibition reaches its midpoint. For the cell line CL-11 (large intestine, adherent), the AUC with TW-37 stood at 0.86; with KIN001-270 it was 0.984; with LFM-A13, 0.987; with AUY922, 0.948; with Nilotinib, 0.954; with Gemcitabine it was 0.969. The AUC with MP470 worked out at 0.892; in the experiment with Bicalutamide (setting [1]) it was 0.983; with Bicalutamide (setting [2]) it was 0.969; with GNF-2, 0.987; in the experiment with T0901317, 0.971. Further, the concentration for half-maximal inhibition (IC50) is more than 5 µM with TW-37; more than 20 µM in the experiment with KIN001-270; more than 16 µM with LFM-A13; more than 0.256 µM with AUY922; more than 2 µM with Nilotinib; more than 1.02 µM with Gemcitabine. Also, the IC50 was more than 20 µM in the experiment with MP470; more than 1.02 µM with Bicalutamide (setting [1]); more than 10 µM with Bicalutamide (setting [2]); more than 1.28 µM with GNF-2; more than 10.2 µM with T0901317.

With GI-1 (glioma, adherent), the AUC with TW-37 was determined as 0.4; in the experiment with KIN001-270 it was 0.945; with LFM-A13, 0.892; in the experiment with AUY922, 0.638; in the experiment with Nilotinib it was 0.953; with Gemcitabine it was 0.187. Moreover, the AUC was 0.949 with MP470; 0.987 in the experiment with Bicalutamide (setting [1]); 0.985 in the experiment with Bicalutamide (setting [2]); 0.94 in the experiment with GNF-2; 0.979 with T0901317. Besides, the IC50 is 0.168 µM with TW-37; more than 20 µM with KIN001-270; more than 16 µM in the experiment with LFM-A13; 0.0379 µM with AUY922; more than 2 µM with Nilotinib; 0.00778 µM in the experiment with Gemcitabine. The IC50 is more than 20 µM with MP470; more than 1.02 µM with Bicalutamide (setting [1]); more than 10 µM in the experiment with Bicalutamide (setting [2]); more than 1.28 µM with GNF-2; more than 10.2 µM in the experiment with T0901317.

Turning to ARH-77 (myeloma, suspension), the AUC in the experiment with TW-37 was found to be 0.653; with KIN001-270, 0.972; with LFM-A13 it was 0.976; in the experiment with AUY922, 0.569; with Nilotinib, 0.987; in the experiment with Gemcitabine it was 0.216. The AUC worked out at 0.976 with MP470; 0.987 with Bicalutamide (setting [1]); 0.974 with Bicalutamide (setting [2]); 0.988 with GNF-2; 0.959 in the experiment with T0901317. The IC50 in the experiment with TW-37 was 0.818 µM; with KIN001-270, more than 20 µM; in the experiment with LFM-A13, more than 16 µM; in the experiment with AUY922, 0.0246 µM; with Nilotinib, more than 2 µM; with Gemcitabine it was 0.00979 µM. Besides, the IC50 was more than 20 µM in the experiment with MP470; more than 1.02 µM with Bicalutamide (setting [1]); more than 10 µM in the experiment with Bicalutamide (setting [2]); more than 1.28 µM with GNF-2; more than 10.2 µM in the experiment with T0901317.

Turning to NALM-6 (B-cell leukaemia, suspension), the AUC with TW-37 is 0.596; with KIN001-270, 0.932; with LFM-A13, 0.976; with AUY922 it was 0.363; with Nilotinib, 0.983; with Gemcitabine, 0.063. The AUC with MP470 is 0.732; in the experiment with Bicalutamide (setting [1]) it was 0.982; with Bicalutamide (setting [2]) it was 0.979; in the experiment with GNF-2, 0.988; with T0901317, 0.889. In addition, the IC50 with TW-37 was 0.546 µM; with KIN001-270 it was more than 20 µM; with LFM-A13, more than 16 µM; with AUY922 it was 0.00719 µM; with Nilotinib, more than 2 µM; with Gemcitabine, less than 0.004 µM. The IC50 was 5.02 µM with MP470; more than 1.02 µM in the experiment with Bicalutamide (setting [1]); more than 10 µM with Bicalutamide (setting [2]); more than 1.28 µM with GNF-2; 8.38 µM in the experiment with T0901317.

As for “KARPAS-45 (lymphoblastic leukaemia, suspension)”, the AUC in the experiment with TW-37 worked out at 0.665; in the experiment with KIN001-270, 0.951; with LFM-A13, 0.958; with AUY922 it was 0.575; with Nilotinib, 0.977; with Gemcitabine, 0.959. Further, the AUC in the experiment with MP470 was found to be 0.923; with Bicalutamide (setting [1]), 0.991; in the experiment with Bicalutamide (setting [2]), 0.989; in the experiment with GNF-2 it was 0.991; with T0901317, 0.937. Moreover, the IC50 with TW-37 was 0.824 µM; with KIN001-270, more than 20 µM; with LFM-A13, more than 16 µM; in the experiment with AUY922 it was 0.0248 µM; in the experiment with Nilotinib, more than 2 µM; in the experiment with Gemcitabine, more than 1.02 µM. The IC50 is more than 20 µM in the experiment with MP470; more than 1.02 µM in the experiment with Bicalutamide (setting [1]); more than 10 µM in the experiment with Bicalutamide (setting [2]); more than 1.28 µM in the experiment with GNF-2; more than 10.2 µM with T0901317.

These data come from the supplement of paper PMC4967469.
